Tested on: T cells
Assay: Flow cytometry of T cells (phenotype, tetramer, intracellular cytokines) from treated HSV infected mice
Settings: six oral doses of PSA, ACV from day 4, spleen day 6 post-infection

Bacteroides fragilis (B. fragilis) capsular polysaccharide A (PSA)
spleen CD8 T cells virus specific (H-2b HSV gB498 tetramer staining): about 12%
